# Test results as given in PubChem BioAssay AID504333 (National Center for Advancing Translational Sciences (NCATS), 2011).
# Where “and” joins values, the source holds several entries; their conditions need not be identical. Equal entries are not always repeated. Among all 360,000 compounds or so, about 16,000 (4.4%) were called active. Inconclusive results, whose numbers are uncertain, are shown with a selection of clear calls. The call rests on the fitted dose curve; in most records, active means well fitted inhibition curve with a large enough effect; inconclusive means small, poorly fitted or top-dose-only effect; inactive means no such curve, though single readings can be large or run the other way. A potency beside an inconclusive call is a rough fit, not a confirmed value.
# Molecular target: Bromodomain adjacent to zinc finger domain protein 2B (Homo sapiens) (UniProt Q9UIF8)
# Test: qHTS Assay for Inhibitors of BAZ2B; further: nearly all actives have a fitted effect of over 60% in size
# Conditions: AlphaScreen BAZ2B-H3K14Ac peptide displacement; activity change, negative = inhibition: at 114 µM (top of the series)
# How it was run: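 AlphaScreen displacement: compounds (up to 110uM) incubated 30 min at room temperature with a preformed 50 nM BAZ2B/50 nM biotinylated H3K14Ac peptide complex in PBS pH 7.4 with Tween-20. Donor and acceptor beads at 10 ug/mL final added, 20 min light-protected before reading.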
# On the % scale 0 is the no-effect control and ±100 the full control effect; potency means the concentration at half of the fitted maximal effect; tags describe the fitted curve by direction and shape.
# UniProt Q9UIF8, sequence (Q9UIF8 whole entry, looked up, the tested form may be a part): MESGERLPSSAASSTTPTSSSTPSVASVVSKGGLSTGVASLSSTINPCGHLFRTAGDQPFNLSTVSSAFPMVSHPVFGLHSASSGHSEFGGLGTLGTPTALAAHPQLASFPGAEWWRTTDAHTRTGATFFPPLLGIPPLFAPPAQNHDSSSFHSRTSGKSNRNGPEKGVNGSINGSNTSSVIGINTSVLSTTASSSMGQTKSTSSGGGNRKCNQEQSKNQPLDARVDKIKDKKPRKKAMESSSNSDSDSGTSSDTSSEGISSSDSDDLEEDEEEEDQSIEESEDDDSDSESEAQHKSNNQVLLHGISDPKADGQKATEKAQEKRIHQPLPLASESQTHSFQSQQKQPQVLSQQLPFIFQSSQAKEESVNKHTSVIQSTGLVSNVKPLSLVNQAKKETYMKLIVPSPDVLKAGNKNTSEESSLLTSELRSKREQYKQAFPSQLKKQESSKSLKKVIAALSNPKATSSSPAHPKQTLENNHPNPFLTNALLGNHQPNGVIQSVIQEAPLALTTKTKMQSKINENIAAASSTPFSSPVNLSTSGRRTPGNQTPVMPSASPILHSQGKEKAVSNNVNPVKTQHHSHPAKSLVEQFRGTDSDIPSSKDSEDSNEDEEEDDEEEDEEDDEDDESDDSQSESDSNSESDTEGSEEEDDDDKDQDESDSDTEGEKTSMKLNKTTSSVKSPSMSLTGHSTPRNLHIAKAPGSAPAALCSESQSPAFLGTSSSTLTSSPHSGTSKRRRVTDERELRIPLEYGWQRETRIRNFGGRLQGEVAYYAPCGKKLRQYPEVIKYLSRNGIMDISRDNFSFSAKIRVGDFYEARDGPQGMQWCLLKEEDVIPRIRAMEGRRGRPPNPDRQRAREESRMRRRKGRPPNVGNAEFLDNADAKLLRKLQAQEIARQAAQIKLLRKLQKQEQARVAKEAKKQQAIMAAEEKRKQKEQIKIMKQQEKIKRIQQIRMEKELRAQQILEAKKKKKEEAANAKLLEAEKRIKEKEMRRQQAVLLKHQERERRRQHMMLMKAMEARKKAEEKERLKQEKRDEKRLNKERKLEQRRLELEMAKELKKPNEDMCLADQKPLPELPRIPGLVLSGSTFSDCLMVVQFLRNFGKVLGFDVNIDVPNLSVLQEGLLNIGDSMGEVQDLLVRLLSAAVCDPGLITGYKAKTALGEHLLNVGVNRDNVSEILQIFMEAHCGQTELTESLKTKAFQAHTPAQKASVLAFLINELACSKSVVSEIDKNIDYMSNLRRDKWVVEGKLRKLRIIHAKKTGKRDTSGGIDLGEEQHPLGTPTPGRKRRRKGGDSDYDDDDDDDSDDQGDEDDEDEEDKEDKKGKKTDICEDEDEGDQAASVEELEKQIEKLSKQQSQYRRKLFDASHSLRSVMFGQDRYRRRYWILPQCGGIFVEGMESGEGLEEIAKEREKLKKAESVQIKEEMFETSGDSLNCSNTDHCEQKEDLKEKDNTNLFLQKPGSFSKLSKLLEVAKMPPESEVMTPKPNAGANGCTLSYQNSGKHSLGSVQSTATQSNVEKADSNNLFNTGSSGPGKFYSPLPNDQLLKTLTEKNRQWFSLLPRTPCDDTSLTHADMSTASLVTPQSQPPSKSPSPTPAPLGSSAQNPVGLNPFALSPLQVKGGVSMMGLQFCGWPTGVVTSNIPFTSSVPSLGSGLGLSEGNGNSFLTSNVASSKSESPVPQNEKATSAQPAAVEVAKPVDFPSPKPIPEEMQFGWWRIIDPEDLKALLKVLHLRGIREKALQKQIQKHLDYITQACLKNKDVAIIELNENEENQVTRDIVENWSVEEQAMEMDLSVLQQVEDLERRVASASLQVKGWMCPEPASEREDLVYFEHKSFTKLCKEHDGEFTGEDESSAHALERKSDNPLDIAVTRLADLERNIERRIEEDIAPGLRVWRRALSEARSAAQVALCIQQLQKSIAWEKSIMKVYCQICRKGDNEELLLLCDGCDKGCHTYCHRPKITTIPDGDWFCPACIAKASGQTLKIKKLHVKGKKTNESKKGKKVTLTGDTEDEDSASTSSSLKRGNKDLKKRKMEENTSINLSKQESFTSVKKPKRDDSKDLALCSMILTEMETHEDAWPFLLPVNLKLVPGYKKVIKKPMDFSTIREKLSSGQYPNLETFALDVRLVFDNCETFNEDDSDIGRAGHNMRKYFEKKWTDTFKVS
SMILES,Potency,"activity change, negative = inhibition"
CN(C)[C@@H]1C(=O)C(C(N)=O)=C(O)[C@@]2(O)C(=O)C3=C(O)c4c(O)cccc4[C@@](C)(O)[C@H]3[C@H](O)[C@@H]12,active: 2.51 µM and active: 2 µM and active: 2.82 µM,
CN(C(=O)CNC(=O)OCc1ccccc1)c1ccc(Br)cc1C(=O)c1ccccc1Cl,,inactive: -10.6%
CN1CC(C(=O)c2ccccc2)C(c2ccccc2)C1 (stereo not drawn),"inconclusive: 89.1 µM [inhibitor, single point]",
COc1cccc(N2C(=O)NC(=O)/C(=C\c3ccc([N+](=O)[O-])s3)C2=O)c1,active: 31.6 µM,
Nc1cc2nc3ccccc3nc2cc1N,"inconclusive: 4.47 µM [inhibitor, full curve, poor fit]",
Cc1ccc(NC(=O)Nc2cc3c(cc2N2CCCCC2)n(C)c(=O)n3C)cc1Cl,"inconclusive: 8.91 µM [inhibitor, full curve, poor fit]",
C[C@](N)(CCP(=O)(O)O)C(=O)O,"inconclusive: 100 µM [inhibitor, single point]",
C[n+]1c(-c2ccccc2)cc(CCCCc2cc(-c3ccccc3)[n+](C)c(-c3ccccc3)c2)cc1-c1ccccc1,"inconclusive: 39.8 µM [inhibitor, partial curve]",
CCC(C)N1C(=O)/C(=C\c2ccc(N3CCCCCC3)cc2)C(=O)NC1=S (stereo not drawn),active: 44.7 µM,
O=c1[nH]c(=S)[nH]c(O)c1N=Nc1ccc(-c2ccccc2)cc1[N+](=O)[O-],active: 7.94 µM,
COC(=O)c1ccc(NS(=O)(=O)NC(=O)c2cn(C)c3ccccc23)cc1,"inconclusive: 56.2 µM [inhibitor, partial curve]",
CC(C)(C)NC(=S)N1CCn2cccc2C1c1cccnc1 (stereo not drawn),"inconclusive: 79.4 µM [inhibitor, single point]",
Fc1ccc(C2=CCN(C(c3ccc(Cl)cc3)c3nnnn3Cc3ccccc3)CC2)cc1 (stereo not drawn),,inactive: -6.75%
Cc1cccc(CN2CC=C(c3noc(CCC(=O)Nc4ccc(C)c(F)c4)n3)CC2)c1,"inconclusive: 79.4 µM [inhibitor, single point]",
Cc1ccc(-n2sc3ccccc3c2=O)cc1,active: 7.94 µM,
O=[N+]([O-])c1ccc(N2CCCCCC2)c2nonc12,"inconclusive: 50.1 µM [inhibitor, partial curve]",
CN1C(=O)C(=Cc2ccc(N3CCOCC3)o2)C(=O)N(C)C1=S,"inconclusive: 89.1 µM [inhibitor, single point]",
CCOP(=O)(OCC)c1nc(-c2ccccc2)oc1NCc1ccccc1,"inconclusive: 56.2 µM [inhibitor, partial curve]",
